In all, about 150,000 compounds went through this assay and about 540 (0.36%) showed an effect of 50% or more. The list shows a part of the results.
System: Plasmodium falciparum
Test: Primary screen in NF54 nanoGlo assay, in single point, at 2uM, 72h; a lower Z score goes with more inhibition
Format: functional, Erythrocyte
Details: timepoint 72 hour

| Compound | % Inhibition [%] | Z score |
| --- | --- | --- |
| CS(=O)(=O)N1CCN(C(=O)N2CCN(Cc3ccccc3)CC2)CC1 | -1 | 0.21 |
| Cc1cc(C)c(OCC(N)=O)c(Cl)c1 | -13 | 1.23 |
| Cc1c(NC(=O)NCC2(C3CCC3)CCC2)nnn1C | -9 | 1.32 |
| Cc1cc(C)n(Cc2cccc(F)c2)c1C(=O)Nc1ccc(F)cc1 | 4 | -0.58 |
| Cc1noc(-c2ccc(C(C)(C)C)cc2)c1C(=O)NCc1cccnc1 | -11 | 1.8 |
| O=C1CC2(CCN(S(=O)(=O)N3CCOCC3)CC2)CN1Cc1ccccc1 | -8 | 1.75 |
| CC(=O)Oc1cc(C(=O)Nc2ccc3c(c2)OCO3)cc(C(=O)Nc2ccc3c(c2)OCO3)c1 | 4 | -0.63 |
| O=C(Nn1cnnc1)C1CCN(S(=O)(=O)c2ccc(Cl)cc2)CC1 | -14 | 1.53 |
| COc1ccccc1N1CCN(CC(=O)N2CC[C@H](Oc3ccccn3)C2)C1=O | -6 | 1.15 |
| CC(C)(C)c1ccc(=O)n(CC2CN(c3cnsn3)C2)n1 | -16 | 2.38 |
| O=C(NCc1cccnc1N1CCOCC1)N1CCCc2ccc(F)c(F)c21 | -3 | 0.35 |
| CC(=O)N(Cc1ccc(Cl)cc1)c1ccc2c(c1)nc(Cn1cccn1)n2C | 30 | -3.93 |
| COc1ccccc1C1(CNC(=O)c2cccs2)CCOCC1 | -5 | 0.81 |
| Cc1cccc(CC(=O)N(C)C[C@H](C)C(=O)O)c1 | -11 | 1.41 |
| CN(C)Cc1ccccc1S(N)(=O)=O | -8 | 1.24 |
| CS(=O)(=O)C[C@H]1CCCCN1C(=O)c1cc2c([nH]1)CCCC2 | 5 | -0.77 |
| CC1CN(Cc2ccccc2)CC1NC(=O)C1CCOCC1 (stereo not given) | -8 | 0.86 |
| CN(C)C(=O)c1cccc(N2CCC3(CCCC3)C2)n1 | -10 | 1.17 |
| COc1ccc(C(=O)N2CCC3(CC2)C[C@@H](Cc2cccc(F)c2)CCO3)cc1F | -10 | 1.31 |
| O=C(O)[C@@]12CC[C@@H](c3ccccc3)C[C@@H]1CN(CCCn1cnnn1)C2 | -21 | 2.16 |
| Cc1c(CN(C)CC(=O)NCc2cccs2)cnn1C | -4 | 0.83 |
| Cc1nc(C)c(CCNC(=O)NCc2nc(C3CC3)no2)s1 | -7 | 0.99 |

| Compound | % Inhibition [%] | Z score |
| --- | --- | --- |
| CC(C)c1cc(C(=O)N(CCOc2ccccc2)C[C@H]2CCCO2)no1 | -2 | 0.49 |
| O[C@@H](Cn1cnnc1)c1ccc(Br)cc1 | 0 | 0.02 |
| O=C1CCCc2nc(NC(=O)C3CC3c3c(F)cccc3F)sc21 (stereo not given) | -8 | 1.53 |
| Cc1ccc(OCCN)c(C(=O)N2C[C@@H]3[C@H]4CC[C@H](CC4)[C@@H]3C2)c1 | -11 | 1.48 |
| COCCCN1C(=O)C[C@](CC(=O)N2CCN(c3ccc(C(C)=O)cc3)CC2)(c2ccccc2)C1=O | -4 | 0.44 |
| O=C1CC[C@@H](CN(Cc2cccnc2)C(=O)c2c[nH]nc2-c2ccccc2)N1 | -6 | 0.85 |
| CCCc1nnsc1C(=O)N1CC[C@H](n2ccnn2)C1 | -8 | 1.36 |
| CCc1ocnc1C(=O)N1CCC[C@@]2(CCC(=O)N(Cc3cccnc3)C2)C1 | -9 | 1.96 |
| COc1cccc(CN2C[C@@H]3C[C@H]2C(=O)NC[C@H]2O[C@H](CCOc4cc(-c5cnn(C)c5)ccc4C(=O)N3)CC[C@@H]2O)c1 | 3 | -0.37 |
| CC1CN(CCC2CCN(CCc3cccnc3)CC2)CC(C)O1 (stereo not given) | -9 | 1.75 |
| Cc1ccn(Cc2ncc(C(C)(C)C)o2)c(=O)c1C#N | -5 | 0.51 |
| CCc1cnc(N(C)Cc2noc(C(C)C)n2)nc1 | -9 | 0.92 |
| Cn1c(C(=O)N2C3CCC2CC(CC(F)(F)F)C3)c[nH]c1=O (stereo not given) | -6 | 1.21 |
| O=S(=O)(c1cnc2ccccn12)N(Cc1cccnc1)C1CC1 | 0 | -0.07 |
| CCCn1cc(-c2ccnc(NCCCN(C)C)n2)c(C)n1 | -14 | 1.36 |
| CCN(CC)S(=O)(=O)NCc1cncc(F)c1 | 7 | -1.32 |
| CCS(=O)(=O)N1CCN(C(=O)c2cc3c(C)cccn3c2)[C@H](C)C1 | 0 | 0 |
| O=C(NCc1ccc(N2CCCC2=O)cc1)c1cn(CCc2ccccc2)nn1 | -10 | 0.96 |
| Cc1csc([C@@H](NS(C)(=O)=O)C2CC2)n1 | 4 | -0.59 |
| Cc1ccc(C(=O)NCc2cc(C)on2)c(=O)[nH]1 | -15 | 1.34 |
| CC(=O)Nc1ccc(S(=O)(=O)Nc2cc(C(=O)N3CCC(C)CC3)ccc2N2CC3CC(C2)c2cccc(=O)n2C3)cc1 (stereo not given) | -13 | 2.19 |
| CCCNC(=O)N1CCN(c2nc(COC)nc3c2c(C)nn3-c2ccccc2)CC1 | -6 | 0.63 |

| Compound | % Inhibition [%] | Z score |
| --- | --- | --- |
| c1ccc(C[C@H](NCc2ccco2)C2CC2)nc1 | -7 | 1.23 |
| CCOC(=O)c1cnc(N(C)OC)s1 | 7 | -0.89 |
| O=S(=O)(c1ccc(OCC(O)CN2CCCCC2)cc1)c1ccc(OCC(O)CN2CCCCC2)cc1 (stereo not given) | 26 | -2.32 |
| O=C(NC[C@H](O)c1ccccc1)c1ccc(-c2ccco2)[nH]c1=O | 0 | -0.07 |
| CCOC(=O)N1CCC(NC(=O)c2cc(NC(=O)CC)cc3nc(Cc4ccccc4)n(C)c23)CC1 | -3 | 0.63 |
| Cc1ccc(F)cc1S(=O)(=O)N1CCC[C@H](C(=O)NC2CC2)C1 | 5 | -0.73 |
| C[C@@H](C#N)NC(=O)c1ccc(Cl)c(F)c1 | -2 | 0.3 |
| CC1CCN(C[C@]2(O)CCCN(CC(C)(C)C)C2=O)CC1 | -7 | 1.03 |
| CC1CCCC2(C1)OCC(C(=O)NCC1CCCO1)N2C(=O)c1ccccc1F (stereo not given) | -9 | 1.16 |
| O=C(C1CC1C1CCCCC1)N1CCC2(CCNCC2)C1 (stereo not given) | 2 | -0.31 |
| COc1cccc(CN2CCc3c(c(C(=O)N4CCC(O)CC4)nn3CCCc3ccccc3)C2)c1 | 13 | -1.74 |
| COCc1n[nH]c(-c2ccc(N3CCCCC3)cc2)n1 | -11 | 1.04 |
| Nc1ncncc1C(=O)N(Cc1ccccc1)C1CCCCC1 | -4 | 0.63 |
| O=C([C@@H]1CCCCC(=O)N1Cc1ccccc1)N1CCc2ccccc2C1 | -13 | 1.5 |
| CCNc1n[nH]c(N)c1-c1nc(-c2ccccc2)no1 | -7 | 1 |
| Cc1noc(C)c1C1(O)CCCCCCCCCCC1 | -2 | 0.23 |
| COc1ccc(S(=O)(=O)N2CCC(N3CCCCCC3)CC2)cc1 | 6 | -0.98 |
| CN(Cc1ccccc1)c1ncccc1CNC(=O)CCC(N)=O | 5 | -0.95 |
| Cc1cc(C)nc(NC2=NCC(=O)N2CCc2c[nH]c3ccccc23)n1 | 2 | -0.3 |
| CN(C(=O)Cc1ccc(O)cc1)C1(C#N)CCC1 | -9 | 1.72 |
| CN1CCC[C@H]1c1nc(C2CN(C(=O)c3ccco3)C2)no1 | -11 | 1.28 |
| COC[C@@H](c1ccccn1)N(C)Cc1noc(C(C)C)n1 | 8 | -1.25 |

| Compound | % Inhibition [%] | Z score |
| --- | --- | --- |
| Cc1cc(NC(=O)CCN2CC(Cc3ccccc3)C2)no1 | -6 | 1.04 |
| Cc1cc(=O)[nH]c(-n2nc(-c3ccco3)cc2N)n1 | -12 | 1.63 |
| FC(F)(F)c1ccc(-c2nc(-c3cnccn3)no2)cn1 | -2 | 0.2 |
| O=C(c1cnn2c1OCCC2)N1CC[C@H](Oc2cnccn2)C1 | -8 | 0.9 |
| Cc1nccc(CNC(=O)N(C)C2CCCCCCC2)n1 | 12 | -1.38 |
| CO[C@H]1CCCC[C@@H]1NC(=O)N(C)Cc1ccn(C)n1 | -6 | 0.73 |
| C[C@H](Nc1ccc(OCC(F)(F)C(F)F)nc1)C(=O)NC(N)=O | -19 | 1.76 |
| CN1CC(=O)N[C@@H]2CN(C(=O)c3cccc(=O)[nH]3)CC[C@@H]2OCc2cccc(c2)Oc2cccc(c2)CCC1=O | -4 | 0.75 |
| Cc1nc(C)c(C)c(N2CCC[C@H]2c2ncc(Br)cn2)n1 | -5 | 1.06 |
| O=C(Cc1cccs1)NCc1nccnc1-c1cccnc1 | -18 | 2.07 |
| COc1cc(Br)c(S(=O)(=O)N[C@H](CN)CC(C)C)cc1Cl | -9 | 0.91 |
| CN1CCN(C[C@H]2CCC3(CCN(S(=O)(=O)c4ccccc4Cl)CC3)O2)CC1 | -11 | 1.47 |
| Cn1cncc1C(=O)NC1(c2nc3ccccc3s2)COC1 | -6 | 0.92 |
| Cn1c(N2CCC[C@H](S(=O)(=O)NC3CCCC3)C2)cccc1=O | -6 | 0.48 |
| Cc1ccc(C(=O)N2CCC3(CC2)COC(=O)N3)c(C(C)C)n1 | -11 | 1.66 |
| O=C(Cc1ccn[nH]1)N[C@H]1CCCOc2c1ccc1ccccc21 | 4 | -0.8 |
| O=C(Cn1cnnn1)NCc1ccc2c(c1)CCC2 | -44 | 5.16 |
| CN(C(=O)c1csc(=O)[nH]1)[C@H]1CCN(c2ccccc2)C1=O | -10 | 1.61 |
| CC(C)c1nc(N2CCO[C@H](c3ccc(Cl)cc3)C2)no1 | 4 | -0.84 |
